Molecules are shown by their SMILES. Out of some 310,000 compounds screened, about 14,000 (4.5%) showed an effect of 50% or more. The effect is printed as a negative number. The list shows a part of the results.
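Also: peak tail current of the secondary pulse compared with the same well before compound.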

human ether-à-go-go-related gene (hERG) potassium channel, sequence (Q12809 whole entry, looked up): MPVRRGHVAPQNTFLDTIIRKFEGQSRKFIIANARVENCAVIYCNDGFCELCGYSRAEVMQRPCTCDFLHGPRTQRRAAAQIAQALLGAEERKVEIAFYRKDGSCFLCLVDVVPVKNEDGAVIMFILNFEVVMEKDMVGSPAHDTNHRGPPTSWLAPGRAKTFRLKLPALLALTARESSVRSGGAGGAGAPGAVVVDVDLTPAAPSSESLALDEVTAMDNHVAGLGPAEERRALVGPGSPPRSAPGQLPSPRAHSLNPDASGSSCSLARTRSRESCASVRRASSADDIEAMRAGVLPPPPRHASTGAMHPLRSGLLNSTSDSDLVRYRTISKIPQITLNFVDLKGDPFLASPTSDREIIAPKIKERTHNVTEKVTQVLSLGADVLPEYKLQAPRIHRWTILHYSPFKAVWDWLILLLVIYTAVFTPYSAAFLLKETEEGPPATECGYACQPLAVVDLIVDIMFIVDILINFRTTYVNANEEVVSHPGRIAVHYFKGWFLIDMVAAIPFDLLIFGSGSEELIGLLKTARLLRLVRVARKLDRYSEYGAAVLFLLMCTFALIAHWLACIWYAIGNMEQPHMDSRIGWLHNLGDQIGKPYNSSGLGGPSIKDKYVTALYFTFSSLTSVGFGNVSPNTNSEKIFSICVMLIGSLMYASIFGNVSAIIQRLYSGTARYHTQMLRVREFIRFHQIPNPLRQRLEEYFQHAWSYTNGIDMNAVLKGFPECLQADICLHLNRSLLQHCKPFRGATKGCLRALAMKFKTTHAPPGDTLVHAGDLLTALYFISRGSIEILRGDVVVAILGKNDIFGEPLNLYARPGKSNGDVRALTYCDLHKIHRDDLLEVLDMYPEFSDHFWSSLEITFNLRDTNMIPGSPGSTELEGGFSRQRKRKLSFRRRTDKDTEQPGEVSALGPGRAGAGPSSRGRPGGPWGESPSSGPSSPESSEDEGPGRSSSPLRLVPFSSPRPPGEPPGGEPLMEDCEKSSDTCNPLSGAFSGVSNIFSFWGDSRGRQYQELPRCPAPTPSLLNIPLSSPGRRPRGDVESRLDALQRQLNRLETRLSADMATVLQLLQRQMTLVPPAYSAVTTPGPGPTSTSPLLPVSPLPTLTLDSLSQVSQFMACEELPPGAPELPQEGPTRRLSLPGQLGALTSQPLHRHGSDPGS

The test concerns the target human ether-à-go-go-related gene (hERG) potassium channel (human, UniProt Q12809). As to the kind of experiment: primary screen, population patch clamp on CHO cells stably expressing hERG.
As for `CSc1nc2nccc(-c3ccc(Cl)cc3)n2n1`, the “hERG current change (%, negative = inhibition) at 10uM” value is reported as 6.26%.

Consider `O=C(Nc1ccccc1)N1CCN(c2ccc(C(F)(F)F)cn2)CC1`, for which the “hERG current change (%, negative = inhibition) at 10uM” value is -23%.

Consider `O=C(Nc1ccc(NC(=O)C2CC2)nc1)c1cccc(F)c1`, for which the “hERG current change (%, negative = inhibition) at 10uM” value turned out to be 14.5%.

As to `CCOC(=O)Nc1ccc2c(C)cc(=O)oc2c1`, the “hERG current change (%, negative = inhibition) at 10uM” value is given as -8.06%.

Turning to `CN(C)S(=O)(=O)c1cccc(NC(=S)NN=C(Cc2ccccc2)Cc2ccccc2)c1`, the “hERG current change (%, negative = inhibition) at 10uM” value is on record as -1.73%.

In the case of `COc1cc(/C=N/n2c(-c3ccc4c(c3)NC(=O)CO4)csc2=Nc2cccc(C)c2)ccc1O`, the “hERG current change (%, negative = inhibition) at 10uM” value is listed as 5.28%.

For `COc1ccc(/C=N/NC(=O)C(C)N(c2ccc(OC)cc2)S(C)(=O)=O)cc1` (stereo not drawn), the “hERG current change (%, negative = inhibition) at 10uM” value is on record as -8.54%.

For `O=c1[nH]c(-c2cccnc2)nc2ccccc12`, the “hERG current change (%, negative = inhibition) at 10uM” value worked out at 11.8%.

As to `Nc1oc2ccccc2c(=O)c1-c1ccc2c(c1)OCO2`, the “hERG current change (%, negative = inhibition) at 10uM” value came out at 17.3%.

Take `C/C(=N\Nc1ccc([N+](=O)[O-])cc1)c1ccc(C#N)cc1`: the “hERG current change (%, negative = inhibition) at 10uM” value was determined as 10.3%.

Turning to `CCCn1c(SCC(=O)NC2CCCC2)nnc1-c1cccnc1`, the “hERG current change (%, negative = inhibition) at 10uM” value worked out at 15.2%.

With `c1ccc(-n2c(SCC3CCCCO3)nnc2-c2cnccn2)cc1` (stereo not drawn), the “hERG current change (%, negative = inhibition) at 10uM” value is listed as -1.46%.

For the compound `COc1ccc(NC(=O)NNC(=O)CCC(=O)Nc2ccccc2Cl)cc1`, the “hERG current change (%, negative = inhibition) at 10uM” value came to 17.8%.

In the case of `CC(=O)Nc1cccc(C(=O)Nc2nc(C)cs2)c1`, the “hERG current change (%, negative = inhibition) at 10uM” value is -1.1%.

Consider `Cc1ccc(/C=C2/Sc3ccc(C(=O)NCCN4CCOCC4)cc3NC2=O)cc1`, for which the “hERG current change (%, negative = inhibition) at 10uM” value is on record as 2.03%.

On to `CCCn1nc(NC(=O)CC)c2cc3cccc(C)c3nc21`, for which the “hERG current change (%, negative = inhibition) at 10uM” value came out at 16.2%.

Turning to `COc1ccc(NC(=O)CN2CCN(c3c(C)cc(C)cc3C)CC2)cc1`, the “hERG current change (%, negative = inhibition) at 10uM” value came to 3.97%.

As to `COc1cc(/C=N/N2C(=O)c3ccccc3NC2(C)c2cccc([N+](=O)[O-])c2)cc(Br)c1O` (stereo not drawn), the “hERG current change (%, negative = inhibition) at 10uM” value is listed as -20.7%.

With `CCOC(=O)c1cc(C#N)c(SCC(=O)c2cc(C#N)c(SC)nc2C)[nH]c1=O`, the “hERG current change (%, negative = inhibition) at 10uM” value is given as -7.31%.

Take `Cc1cc(NC(=O)c2ccc3c(c2)OCCO3)no1`: the “hERG current change (%, negative = inhibition) at 10uM” value is reported as 4.64%.

Take `O=C(Nc1ccc(F)cc1)OCCN1CCN(Cc2ccccc2)CCC1=O`: the “hERG current change (%, negative = inhibition) at 10uM” value is on record as -28.9%.

As to `CC(C)(C)SCCNC(=O)CN(c1ccccc1)S(=O)(=O)c1ccccc1`, the “hERG current change (%, negative = inhibition) at 10uM” value is given as 11.4%.

As to `COc1ccc(/C=N/NC(=O)CNC(=O)/C=C/c2ccco2)cc1OC`, the “hERG current change (%, negative = inhibition) at 10uM” value is recorded as -0.434%.

With `CC1CCCN(C(=O)C(Cc2ccccc2)n2cccc2)C1` (stereo not drawn), the “hERG current change (%, negative = inhibition) at 10uM” value was -18.2%.

Regarding `CCc1ccc(N(CC(=O)Nc2ccc(NC(C)=O)cc2)S(=O)(=O)c2ccccc2)cc1`, the “hERG current change (%, negative = inhibition) at 10uM” value is 10.5%.

`COc1ccc(Cl)cc1NC(=O)CN1c2ccccc2CC1C` (stereo not drawn): the “hERG current change (%, negative = inhibition) at 10uM” value is 43.4%.

Consider `CCOc1cc(C#N)c(NC(=O)c2ccnn2C)cc1OCC`, for which the “hERG current change (%, negative = inhibition) at 10uM” value was determined as 2.9%.

Consider `Cc1ccc(S(=O)(=O)NC2=NCN(CCOC(=O)c3ccc([N+](=O)[O-])cc3)CN2)cc1`, for which the “hERG current change (%, negative = inhibition) at 10uM” value was 12.7%.

For `COc1cc(/C=C(\C#N)c2nc3ccccc3[nH]2)cc(Br)c1OCc1ccccc1`, the “hERG current change (%, negative = inhibition) at 10uM” value is on record as 0.571%.

Regarding `CCOc1cc(CNC2CCCC2)c(Cl)cc1OCC(=O)Nc1ccccc1`, the “hERG current change (%, negative = inhibition) at 10uM” value is -67.8%.

`Cn1c(=O)c2c(ncn2CC(O)CNc2ccc(Br)cc2)n(C)c1=O` (stereo not drawn): the “hERG current change (%, negative = inhibition) at 10uM” value is recorded as -24.3%.

As to `CN(C(=O)c1cccc(NC(=O)Cc2ccccc2)c1)c1ccccc1`, the “hERG current change (%, negative = inhibition) at 10uM” value is recorded as 7.73%.

For the compound `COc1c(C)cc(C(=O)C2CCCN(Cc3c(C)n(C)n(-c4ccccc4)c3=O)C2)cc1C` (stereo not drawn), the “hERG current change (%, negative = inhibition) at 10uM” value is -19.9%.

Take `Cc1nc(-c2cccnc2)sc1C(N)=O`: the “hERG current change (%, negative = inhibition) at 10uM” value turned out to be 6.15%.

With `COc1ccc(C2/C(=C(/O)c3ccccc3)C(=O)C(=O)N2CC(C)O)c(OC)c1` (stereo not drawn), the “hERG current change (%, negative = inhibition) at 10uM” value is -1.25%.

For `COc1ccccc1C(C)Nc1ccc(S(=O)(=O)N2CCN(C)CC2)cc1[N+](=O)[O-]` (stereo not drawn), the “hERG current change (%, negative = inhibition) at 10uM” value is recorded as -5.73%.

With `CN(Cc1ccco1)C(=O)c1ccc(CNS(=O)(=O)c2ccc3c(c2)C(C)(C)C(=O)N3C)cc1`, the “hERG current change (%, negative = inhibition) at 10uM” value is on record as -4.96%.

Turning to `CCNc1nc(SCC(=O)Nc2ccc(Cl)c(Cl)c2)nc(N2CCOCC2)n1`, the “hERG current change (%, negative = inhibition) at 10uM” value is reported as -10.3%.

`O=C(Nc1ccc(N2CCOCC2)cc1)c1cn2ccccc2n1`: the “hERG current change (%, negative = inhibition) at 10uM” value is 4.75%.

As to `CCOP(=O)(OCC)c1nc(-c2ccccc2Cl)oc1N1CCOCC1`, the “hERG current change (%, negative = inhibition) at 10uM” value was found to be 9.31%.

`O=C(CSC1=NCCS1)Nc1ccccc1F`: the “hERG current change (%, negative = inhibition) at 10uM” value is reported as 16.3%.

Consider `CCOc1ccc(N2CC(C(=O)Nc3ccccc3F)CC2=O)cc1` (stereo not drawn), for which the “hERG current change (%, negative = inhibition) at 10uM” value is -13.5%.

Turning to `C=CCOC(=O)C1=C(C)NC(C)=C(C(=O)OCC=C)C1c1cccs1`, the “hERG current change (%, negative = inhibition) at 10uM” value is on record as -12.6%.

Regarding `COC(=O)c1c(NC(=O)C2(C)Cc3ccccc3C(=O)O2)sc2c1CCCC2` (stereo not drawn), the “hERG current change (%, negative = inhibition) at 10uM” value came to 12.7%.

Turning to `CCCCC(=O)OCC(=O)c1ccc(OCC)cc1`, the “hERG current change (%, negative = inhibition) at 10uM” value is listed as 9.86%.

The values are drawn from paper PMC4336329 (PLoS ONE, 2015).
